Measured values as given in US20260200947A1, “FUSED CYCLIC COMPOUNDS AND USE THEREOF” (Jacobio Pharmaceuticals Co., Ltd., priority 2022, published 2026).

Columns and labels:
GppNp-KRAS G12D = GppNp-KRAS G12D (Homo sapiens, UniProt P01116, G12D); assay: biochemical
SW620 cells (K-Ras G12V) = assay: Phospho-ERK1/2(THR202/TYR204) HTRF assay, SW620; type: cell-based; settings: Homo sapiens, SW-620, 2 hours incubation, read-out: pERK, IC50, SW620
GppNp-KRAS G12V = GppNp-KRAS G12V (Homo sapiens, UniProt P01116, G12V); assay: biochemical
[1] = tested on: Capan-2 cells (K-Ras G12V)

Structure (SMILES) | IC50 (GppNp-KRAS G12D) [nM] | IC50 (SW620 cells (K-Ras G12V)) [nM] | IC50 (GppNp-KRAS G12V) [nM] | IC50 (AGS cells (K-Ras G12D)) [nM] | IC50 [1] [nM]
C#Cc1c(F)ccc2cc(N)cc(-c3nc4c5c(nc(OC[C@@]67CCCN6C[C@H](F)C7)nc5c3F)N3C(C5CCCO5)CCOCC3N4C)c12 (stereo partly shown) [Compound 100] | 647 |  |  |  | 
C#Cc1c(F)ccc2cc(N)cc(-c3nc4c5c(nc(OCC67CCCN6CC6(C7)CC6(F)F)nc5c3F)N3CCCOC[C@H]3CO4)c12 (stereo partly shown) [Compound 25] | 306 | 32.5 |  |  | 
C#Cc1c(F)ccc2cc(N)cc(-c3nc4c5c(nc(OC[C@@]67CCCN6C[C@H](F)C7)nc5c3F)N3CCCCOC3N4C)c12 (stereo partly shown) [Compound 70] | 426 | 50.9 |  |  | 
C#Cc1c(F)ccc2cc(N)cc(-c3nc4c5c(nc(OCC6(CN7CC[C@@H](F)C7)CC6)nc5c3F)N3CCCOCC3N4C)c12 (stereo partly shown) [Compound 82] | > 1000 |  | > 1000 |  | 
C#Cc1c(F)ccc2cc(N)cc(-c3nc4c5c(nc(OC[C@@]67CCCN6CC(=C)C7)nc5c3F)N3CCCOC[C@H]3CO4)c12 [Compound 7] |  | 1.55 |  |  | 
C#Cc1c(F)ccc2cc(N)cc(-c3nc4c5c(nc(OCC67C[C@@H](F)CN6CC6(CC6)C7)nc5c3F)N3CCCOC[C@H]3CO4)c12 (stereo partly shown) [Compound 33] | 99.9 | 2.83 | 223 |  | 
C#Cc1c(F)ccc2cc(N)cc(-c3nc4c5c(nc(OCC67CC(C)CN6C[C@H](F)C7)nc5c3F)N3CCCOC[C@H]3CO4)c12 (stereo partly shown) [Compound 32] |  | 22.7 |  |  | 
C#Cc1c(F)ccc2cc(N)cc(-c3nc4c5c(nc(OC[C@@]67CCCN6C[C@H](F)C7)nc5c3F)N3[C@@H](CC)CCOC[C@H]3CO4)c12 [Compound 65] | 230 | 6.11 | 270 |  | 
C#Cc1c(F)ccc2cc(N)cc(-c3nc4c5c(nc(OC[C@@]67CCCN6C[C@H](F)C7)nc5c3F)N3CCCCC(C#N)C3N4C)c12 (stereo partly shown) [Compound 101] |  |  | > 1000 |  | 
C#Cc1c(F)ccc2cc(O)cc(-c3nc4c5c(nc(OC[C@@]67CCCN6C[C@H](F)C7)nc5c3F)N3CCCOC[C@H]3N4C)c12 [Compound 50] |  | 0.678 |  |  | 
C#Cc1c(F)ccc2cc(N)cc(-c3nc4c5c(nc(OC[C@@]67CCCN6C[C@H](F)C7)nc5c3F)N3CCC=CC3N4C)c12 (stereo partly shown) [Compound 71] |  | 22.7 | > 1000 |  | 
C#Cc1c(F)ccc2cc(N)cc(-c3nc4c5c(nc(OC[C@@]67CCCN6C[C@H](F)C7)nc5c3F)N3CC(F)(F)CCC3N4C)c12 (stereo partly shown) [Compound 53] | 989 | 46.9 | > 1000 |  | 
N#Cc1c(N)sc2c(F)ccc(-c3cc4c5c(nc(OC[C@@]67CCCN6C[C@H](F)C7)nc5c3F)N3CCCOC[C@H]3CO4)c12 [Compound 161] | 53.8 |  | 101 | 34.8 | 48.4
C#Cc1c(F)ccc2cc(N)cc(-c3nc4c5c(nc(OCC6(CN(C)C)CC6(F)F)nc5c3F)N3CCCOC[C@H]3N4C)c12 (stereo partly shown) [Compound 4] | 164 |  | 292 |  | 
C#Cc1c(F)ccc2cc(N)cc(-c3nc4c5c(nc(OC[C@@]67CCCN6C[C@H](F)C7)nc5c3F)N3CCCOC[C@H]3C4=C)c12 [Compound 21] | 82.4 | 4.04 | 103 |  | 
C#Cc1c(F)ccc2cc(N)cc(-c3nc4c5c(nc(OC[C@@]67CCCN6CC(=C)C7)nc5c3F)N3CCCOC[C@H]3N4C)c12 [Compound 125] |  |  |  | 0.764 | 0.905
C[C@H]1CCOC[C@H]2N(C)c3nc(-c4cc(O)cc5ccc(F)c(F)c45)c(F)c4nc(OC[C@@]56CCCN5C[C@H](F)C6)nc(c34)N12 [Compound 73] | 140 |  | 503 | 11.7 | 5.6
C#Cc1c(F)c(F)cc2cc(N)cc(-c3nc4c5c(nc(OC[C@@]67CCCN6C[C@H](F)C7)nc5c3F)N3CCCOC[C@H]3CO4)c12 [Compound 8] | 66.4 | 2.23 | 200 |  | 
CN1c2nc(-c3ccc(F)c4sc(N)c(C#N)c34)c(F)c3nc(OC[C@@]45CCCN4C[C@H](F)C5)nc(c23)N2CCCOC[C@@H]12 [Compound 75] | 386 |  | 880 |  | 
C#Cc1c(F)ccc2cc(N)cc(-c3nc4c5c(nc(OC[C@@]67CCCN6C[C@H](F)C7)nc5c3F)N3CC(F)COC[C@H]3CO4)c12 (stereo partly shown) [Compound 15] |  | 29.4 |  |  | 
C#Cc1c(F)ccc2cc(N)cc(-c3nc4c5c(nc(OCC6(CN7CCOCC7)CC6)nc5c3F)N3CCCOC[C@H]3N4C)c12 [Compound 74] | 243 |  | 344 |  | 
C#Cc1c(F)ccc2cc(N)cc(-c3nc4c5c(nc(OC[C@@]67CCCN6C[C@H](F)C7)nc5c3F)N3CCCC[C@@H](O)[C@H]3N4C)c12 [Compound 110] | 244 |  | > 1000 | 6.05 | 17.5
C#Cc1c(F)ccc2cc(O)cc(-c3nc4c5c(nc(OC[C@@]67CCCN6C[C@H](F)C7)nc5c3F)N3CCOCC3C4=C)c12 (stereo partly shown) [Compound 12] |  | 34.4 |  |  | 
C#Cc1c(F)ccc2cc(O)cc(-c3nc4c5c(nc(OCC67CC(=C)CN6CC(=C)C7)nc5c3F)N3CCCOC[C@H]3CO4)c12 [Compound 2] |  | 12.1 |  |  | 
[2H][C@]1(F)CCCCN2c3nc(OC[C@@]45CCCN4C[C@H](F)C5)nc4c(F)c(-c5cc(N)cc6ccc(F)c(C#C)c56)nc(c34)N(C)[C@@H]21 [Compound 95] | 8.34 |  | 27.3 |  | 
C#Cc1c(F)c(F)cc2cc(N)cc(-c3nc4c5c(nc(OC[C@@]67CCCN6C[C@H](F)C7)nc5c3F)N3CCCOC[C@H]3N4C)c12 [Compound 45] |  | 3.59 |  |  | 
C#Cc1c(F)c(F)cc2cc(N)cc(-c3nc4c5c(nc(OC[C@@]67CCCN6CC(=C)C7)nc5c3F)N3CCCOC[C@H]3CO4)c12 [Compound 34] | 50 | 2 | 68.1 |  | 
C#Cc1c(F)ccc2cc(N)cc(-c3nc4c5c(nc(OC[C@@]67CCCN6C[C@H](F)C7)nc5c3F)N3CCC=CCC3N4C)c12 (stereo partly shown) [Compound 72] | 105 |  | 257 | 27.3 | 10.5
